Results on eleven compounds are retold here after patent EP3498273A1, “PHARMACEUTICAL COMPOSITION FOR MODULATING THE RESPONSE OF A GABA-A RECEPTOR” (Universität Wien, priority 2017, dated 2019).

What is called Emax is the greatest response seen or fitted, relative to the assay's reference. The EC50 is the concentration that produces a half-maximal response. The low end stands for a more potent agent, the high end for a less potent agent.

The first assay addresses T1, GABAA receptors composed of α1β3γ2S subunits (Homo sapiens, UniProt P14867+P28472).
Experiment: not given
Conditions: maximal IGABA enhancement, GABA EC3-7.
With `C/C(=C/C#N)c1ccc(Cl)cc1Cl` [Compound Z-2, (2Z)-3-(2,4-dichlorophenyl)but-2-enenitrile], the Emax was determined as 1896.4 ± 114.3%.

For the next assay, the target named is T1, GABAA receptors composed of α1β3γ2S subunits. Briefly: cell-based.
Conditions: not given
On to `C/C(=C/C#N)c1ccc(Cl)cc1Cl` [Compound Z-2, (2Z)-3-(2,4-dichlorophenyl)but-2-enenitrile], for which it took 12.8 ± 1.7 µM to reach a half-maximal effect (EC50).

Staying with this assay, now noted: read-out: IGABA pot; % α1β3γ2s (100µM).
For `C/C(=C\C(N)=O)c1ccc(Cl)cc1Cl` [Compound E-11, (2E)-3-(2,4-dichlorophenyl)-2-butenamide], the activation at 100 µM came out at 603 ± 39%.
Same read-out and setting: the same measure for `CC(C#N)=Cc1ccc(C)cc1Cl` (mixture of isomers) [6 (E/Z mixture), 3-(2-chloro-4-methylphenyl)-2-methylacrylonitrile]: 788 ± 67%; for `Cc1ccc(CC(C)C#N)c(Cl)c1` (stereo not drawn) [Compound 8, 3-(2-chloro-4-methylphenyl)-2-methylpropanenitrile]: 931 ± 54%.
For `C/C(C#N)=C/c1ccc(C)cc1Cl` [Compound Z-6, (2Z)-3-(2-chloro-4-methylphenyl)-2-methylacrylonitrile], the activation at 100 µM was 256 ± 45%.
As to `Cc1ccc(OC(C)C#N)c(Cl)c1` (racemic) [Compound 13, 2-(2-chloro-4-methylphenoxy)propanenitrile], the activation at 100 µM was 516 ± 58%.
On the same count and under the same terms, as for `Cc1ccc(C(C)CC#N)c(Cl)c1` (stereo not drawn) [Compound 10, 3-(2-chloro-4-methylphenyl)butanenitrile], the figure is 545 ± 57%.
Take `CC(=Cc1cc(C)cc(C)c1)c1nnn[nH]1` (mixture of isomers) [16 (E/Z mixture), 5-(1-(3,5-dimethylphenyl)prop-1-en-2-yl)-1H tetrazole]: the activation at 100 µM stood at 138 ± 6%.
Take `C/C(=C/C(N)=O)c1ccc(Cl)cc1Cl` [Compound Z-11, (2Z)-3-(2,4-dichlorophenyl)-2-butenamide]: the activation at 100 µM is 397 ± 10%.
Same read-out and setting: the same measure for `C/C(C#N)=C/c1ccc(Cl)cc1Cl` [Compound Z-7, (2Z)-3-(2,4-dichlorophenyl)-2-methylacrylonitrile]: 199 ± 92%.
For the compound `Cc1ccc(OC(C)C#N)c(C)c1` (racemic) [Compound 14, 2-(2,4-dimethylphenoxy)propanenitrile], the activation at 100 µM came out at 238 ± 35%.
